# Assay results: the supplement of paper PMC8728848
# This is one part of the list.
# B1: diCBM40 CPF071 (Clostridium perfringens) (protein)
# chain: MAHHHHHHVGTGSNDDDDKSPDPMLSSLGEYKDINLESSNASNITYDLEKYKNLDEGTIVVRFNSKDSKIQSLLGISNSKTKNGYFNFYVTNSRVGFELRNQKNEGNTQNGTENLVHMYKDVALNDGDNTVALKIEKNKGYKLFLNGKMIKEVKDTNTKFLNNIENLDSAFIGKTNRYGQSNEYNFKGNIGFMNIYNEPLGDDYLLSKTGETKALNGSELGSGSGLSSLGEYKDINLESSNASNITYDLEKYKNLDEGTIVVRFNSKDSKIQSLLGISNSKTKNGYFNFYVTNSRVGFELRNQKNEGNTQNGTENLVHMYKDVALNDGDNTVALKIEKNKGYKLFLNGKMIKEVKDTNTKFLNNIENLDSAFIGKTNRYGQSNEYNFKGNIGFMNIYNEPLGDDYLLSKTGETK
# Key:
# Experiment in all cases: glycan array binding signal (z-score within array); higher = stronger binding
# Conditions in all cases: glycan notation: IUPAC condensed, linker removed
# [1] = target: Fuc(a1-3)[Gal3S(b1-4)]GlcNAc6S
# Method in brief: (§1)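 Glycan array binding is given as a within-array Z-score, which can be read as non-binding when negative. The arrays, 3228 of them, came from the Consortium for Functional Glycomics database and were retained only where the protein sequence was available. Z-scores were averaged across arrays of the same protein sequence at different concentrations or buffers and across linkers.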
# [2] = target: Fuc(a1-3)[GalNAc(b1-4)]GlcNAc
# Method in brief: as §1
# [3] = target: Fuc(a1-3)[GalNAc(b1-4)]GlcNAc6S
# Method in brief: as §1
# [4] = target: Fuc(a1-4)GlcNAc
# Method in brief: as §1
# [5] = target: Fuc(b1-3)GlcNAc
# Method in brief: as §1
# [6] = target: Gal(a1-2)Gal
# Method in brief: as §1
# [7] = target: Gal(a1-3)Gal
# Method in brief: as §1
# [8] = target: Gal(a1-3)Gal(b1-3)GlcNAc
# Method in brief: as §1
# [9] = target: Gal(a1-3)Gal(b1-3)GlcNAc(b1-2)Man
# Method in brief: as §1
# [10] = target: Gal(a1-3)Gal(b1-3)GlcNAc(b1-2)Man(a1-3)[Gal(a1-3)Gal(b1-3)GlcNAc(b1-2)Man(a1-6)]Man(b1-4)GlcNAc(b1-4)GlcNAc
# Method in brief: as §1
# [11] = target: Gal(a1-3)Gal(b1-3)GlcNAc(b1-3)GalNAc
# Method in brief: as §1
# [12] = target: Gal(a1-3)Gal(b1-3)GlcNAc(b1-6)GalNAc
# Method in brief: as §1
# [13] = target: Gal(a1-3)Gal(b1-3)[Fuc(a1-4)]GlcNAc(b1-2)Man(a1-3)[Gal(a1-3)Gal(b1-3)[Fuc(a1-4)]GlcNAc(b1-2)Man(a1-6)]Man(b1-4)GlcNAc(b1-4)GlcNAc
# Method in brief: as §1
# [14] = target: Gal(a1-3)Gal(b1-4)Glc
# Method in brief: as §1
# [15] = target: Gal(a1-3)Gal(b1-4)GlcNAc
# Method in brief: as §1
# [16] = target: Gal(a1-3)Gal(b1-4)GlcNAc(b1-2)Man
# Method in brief: as §1
# [17] = target: Gal(a1-3)Gal(b1-4)GlcNAc(b1-2)Man(a1-3)[Gal(a1-3)Gal(b1-4)GlcNAc(b1-2)Man(a1-6)]Man(b1-4)GlcNAc(b1-4)GlcNAc
# Method in brief: as §1
# [18] = target: Gal(a1-3)Gal(b1-4)GlcNAc(b1-3)GalNAc
# Method in brief: as §1
# [19] = target: Gal(a1-3)Gal(b1-4)GlcNAc(b1-6)GalNAc
# Method in brief: as §1
# [20] = target: Gal(a1-3)Gal(b1-4)[Fuc(a1-3)]GlcNAc
# Method in brief: as §1
# [21] = target: Gal(a1-3)Gal(b1-4)[Fuc(a1-3)]GlcNAc(b1-2)Man(a1-3)[Gal(a1-3)Gal(b1-4)[Fuc(a1-3)]GlcNAc(b1-2)Man(a1-6)]Man(b1-4)GlcNAc(b1-4)GlcNAc
# Method in brief: as §1
# [22] = target: Gal(a1-3)GalNAc
# Method in brief: as §1
# [23] = target: Gal(a1-3)[Gal(a1-4)]Gal(b1-4)GlcNAc
# Method in brief: as §1
# [24] = target: Gal(a1-4)Gal(b1-3)GlcNAc(b1-2)Man(a1-3)[Gal(a1-4)Gal(b1-3)GlcNAc(b1-2)Man(a1-6)]Man(b1-4)GlcNAc(b1-4)GlcNAc
# Method in brief: as §1
# [25] = target: Gal(a1-4)Gal(b1-4)Glc
# Method in brief: as §1
# [26] = target: Gal(a1-4)Gal(b1-4)GlcNAc
# Method in brief: as §1
# [27] = target: Gal(a1-4)Gal(b1-4)GlcNAc(b1-2)Man(a1-3)[Gal(a1-4)Gal(b1-4)GlcNAc(b1-2)Man(a1-6)]Man(b1-4)GlcNAc(b1-4)GlcNAc
# Method in brief: as §1
# [28] = target: Gal(a1-4)Gal(b1-4)GlcNAc(b1-3)Gal(b1-4)Glc
# Method in brief: as §1
# [29] = target: Gal(a1-4)GlcNAc
# Method in brief: as §1
# [30] = target: Gal(a1-6)Glc
# Method in brief: as §1
# [31] = target: Gal(b1-2)Gal
# Method in brief: as §1
# [32] = target: Gal(b1-3)Gal
# Method in brief: as §1
# [33] = target: Gal(b1-3)Gal(b1-4)GlcNAc
# Method in brief: as §1
# [34] = target: Gal(b1-3)GalNAc
# Method in brief: as §1
# [35] = target: Gal(b1-3)GalNAc(a1-3)[Fuc(a1-2)]Gal(b1-4)Glc
# Method in brief: as §1
# [36] = target: Gal(b1-3)GalNAc(a1-3)[Fuc(a1-2)]Gal(b1-4)GlcNAc
# Method in brief: as §1
# [37] = target: Gal(b1-3)GalNAc(b1-3)Gal
# Method in brief: as §1
# [38] = target: Gal(b1-3)GalNAc(b1-3)Gal(a1-4)Gal(b1-4)Glc
# Method in brief: as §1
# [39] = target: Gal(b1-3)GalNAc(b1-4)Gal(b1-4)Glc
# Method in brief: as §1
# [40] = target: Gal(b1-3)GalNAc(b1-4)[Neu5Ac(a2-3)]Gal(b1-4)Glc
# Method in brief: as §1
# [41] = target: Gal(b1-3)GlcNAc
# Method in brief: as §1
# [42] = target: Gal(b1-3)GlcNAc(a1-3)Gal(b1-4)GlcNAc
# Method in brief: as §1
# [43] = target: Gal(b1-3)GlcNAc(a1-6)Gal(b1-4)GlcNAc
# Method in brief: as §1
# [44] = target: Gal(b1-3)GlcNAc(b1-2)Man
# Method in brief: as §1
# [45] = target: Gal(b1-3)GlcNAc(b1-2)Man(a1-3)[Gal(b1-3)GlcNAc(b1-2)Man(a1-6)]Man(b1-4)GlcNAc(b1-4)GlcNAc
# Method in brief: as §1
binder,measurement,setting,value
B1,glycan array binding signal (z-score),[1],-0.332
same,glycan array binding signal (z-score),[2],-0.303
same,glycan array binding signal (z-score),[3],-0.31
same,glycan array binding signal (z-score),[4],0.337
same,glycan array binding signal (z-score),[5],-0.339
same,glycan array binding signal (z-score),[6],-0.331
same,glycan array binding signal (z-score),[7],0.026
same,glycan array binding signal (z-score),[8],-0.198
same,glycan array binding signal (z-score),[9],-0.119
same,glycan array binding signal (z-score),[10],0.337
same,glycan array binding signal (z-score),[11],-0.325
same,glycan array binding signal (z-score),[12],-0.342
same,glycan array binding signal (z-score),[13],0.823
same,glycan array binding signal (z-score),[14],-0.245
same,glycan array binding signal (z-score),[15],-0.217
same,glycan array binding signal (z-score),[16],-0.323
same,glycan array binding signal (z-score),[17],-0.182
same,glycan array binding signal (z-score),[18],-0.317
same,glycan array binding signal (z-score),[19],-0.344
same,glycan array binding signal (z-score),[20],-0.136
same,glycan array binding signal (z-score),[21],-0.329
same,glycan array binding signal (z-score),[22],-0.324
same,glycan array binding signal (z-score),[23],-0.317
same,glycan array binding signal (z-score),[24],-0.185
same,glycan array binding signal (z-score),[25],-0.292
same,glycan array binding signal (z-score),[26],-0.309
same,glycan array binding signal (z-score),[27],-0.339
same,glycan array binding signal (z-score),[28],-0.311
same,glycan array binding signal (z-score),[29],-0.307
same,glycan array binding signal (z-score),[30],-0.349
same,glycan array binding signal (z-score),[31],-0.348
same,glycan array binding signal (z-score),[32],-0.341
same,glycan array binding signal (z-score),[33],-0.128
same,glycan array binding signal (z-score),[34],-0.294
same,glycan array binding signal (z-score),[35],-0.327
same,glycan array binding signal (z-score),[36],-0.308
same,glycan array binding signal (z-score),[37],-0.318
same,glycan array binding signal (z-score),[38],-0.349
same,glycan array binding signal (z-score),[39],-0.216
same,glycan array binding signal (z-score),[40],-0.3
same,glycan array binding signal (z-score),[41],-0.316
same,glycan array binding signal (z-score),[42],-0.311
same,glycan array binding signal (z-score),[43],-0.263
same,glycan array binding signal (z-score),[44],-0.346
same,glycan array binding signal (z-score),[45],-0.168
